Experimental findings from patent US20250000991A1, “NECTIN-4 ANTIBODIES AND ANTIBODY-DRUG CONJUGATES” (Eli Lilly and Company, priority 2023, published 2025) are described below.

By IC50 is commonly meant the concentration needed to halve the response being measured.

For one experiment, the system named is rat Nectin-4. Nature of the experiment: Surface plasmon resonance (Biacore 8K+) binding of nectin-4 ADCs to rat Nectin-4. Conditions: rat Nectin-4, 37° C., ADC Formula XI DAR 8, n=1. How it is done:
(§1) An anti-human Fc sensor surface was prepared by amine-coupling of goat anti-human IgG Fc (Southern Biotech Cat. No. 2014-01, Birmingham, AL) to a Biacore Series S CM4 (Cytiva Cat. No. BR-100534) sensor surface at 25° C. For immobilization, a running buffer of 10 mM HEPES, 150 mM NaCl, 0.05% Tween-20, pH 7.4 was used. Flow cells 1 & 2 of all 8 channels were activated with a 1:1 (v/v) mixture of 400 mM 1-Ethyl-3-(3-dimethylaminopropyl) carbodiimide hydrochloride (EDC) and […] N-Hydroxysuccinimide (NHS) at a flow rate of 10 uL/min for 7 minutes. Then the anti-human IgG Fc capture reagent was coupled to the sensor surface (diluted to 50 μg/mL in 10 mM Acetate pH 4.5 buffer) by injecting it in all flow cells and channels at a flow rate of 10 uL/min for 7 minutes. Remaining active groups were blocked by injecting 100 mM ethylenediamine (in 200 mM Borate buffer, pH 8.5) in all flow cells and channels at a flow rate of 10 uL/min for 7 minutes. All channels and flow cells were then preconditioned using three consecutive 1-minute injections of 75 mM phosphoric acid at 10 uL/min.
(§2) In each analysis cycle, a different ADC was captured on flow cell 2 of each channel by injecting it at 5 μg/mL and 10 uL/min. After capture, the same analyte was injected on flow cells 1 and 2 in all 8 channels for 2 minutes at 30 uL/n and dissociation was monitored for 10 minutes. After dissociation, all surfaces were regenerated with three 1-minute injections of 5 mM phosphoric acid at 10 uL/min. ADC capture and analyte cycles were repeated to obtain analyte binding of each ADC at concentrations of 0, 2.5, 7.4, 22, 67, 200 and 600 nM nectin-4.
(§3) Sensorgram data were fit globally with the default 1:1 binding model in Biacore Insight Evaluation Software v3.0.12.15655.
(In general: SPR reads the build-up and loss of mass on a sensor chip optically.)

For a further experiment, the target named is T1, human Nectin-4 (Homo sapiens, UniProt Q96NY8).
T1 construct: His tag; purchased Acro Biosystems NE4-H52H3
T1 sequence (Q96NY8 32-510): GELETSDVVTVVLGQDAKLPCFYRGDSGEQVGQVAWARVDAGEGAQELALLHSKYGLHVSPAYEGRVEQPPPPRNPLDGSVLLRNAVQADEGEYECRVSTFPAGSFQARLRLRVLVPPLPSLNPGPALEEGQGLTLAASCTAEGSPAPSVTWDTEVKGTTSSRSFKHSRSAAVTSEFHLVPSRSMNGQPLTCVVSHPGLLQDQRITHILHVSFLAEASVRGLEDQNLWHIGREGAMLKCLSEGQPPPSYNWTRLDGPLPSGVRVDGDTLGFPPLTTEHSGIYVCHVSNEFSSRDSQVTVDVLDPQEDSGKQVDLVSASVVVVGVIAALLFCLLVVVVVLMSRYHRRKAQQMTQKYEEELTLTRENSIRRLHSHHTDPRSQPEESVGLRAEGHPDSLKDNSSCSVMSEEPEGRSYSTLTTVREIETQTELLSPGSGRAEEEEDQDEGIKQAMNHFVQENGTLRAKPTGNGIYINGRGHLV
Nature of the experiment: Surface plasmon resonance (Biacore 8K+) binding of nectin-4 ADCs to human Nectin-4. Particulars: human Nectin-4, 37° C., ADC Formula XI DAR 8; n=3 mean ± SD, n=2 replicate values. How it is done:
as §1, §2, §3

The test system of experiment [1] is UMUC3-Luc-GFP + UMUC3-hNectin4 clone F7. Nature of the experiment: Bystander killing of UMUC3-Luc-GFP cells co-cultured with UMUC3-hNectin4 clone F7 (ONE-Glo). The class given is cell-based, human. Conditions: UMUC3-hNectin-4 cloneF7/UMUC3-Luciferase-GFP 4:1, 5 days. How it is done:
UMUC3 cell line was engineered to express human Nectin4 and two clonal populations with different levels of expression were selected. In flat white clear-bottom 96-well plates, UMUC3-hNectin4 clone F7/UMUC3-Luc-GFP cells were mixed and seeded at a total of 1500 cells/well/100 ul with a ratio of 4:1 in assay medium (MEM+1× GlutaMax+10% Heat Inactivated Fetal Bovine Serum+1 mM sodium pyruvate). UMUC3-hNectin4 clone E3/UMUC3-Luc-GFP cells were mixed and seeded at a total of 2100 cells/well/100 ul with a ratio of 6:1 in assay medium. UMUC3-Luc-GFP cells were negative for nectin-4 expression. Plates were incubated at 37° C. with 5% CO2 overnight. […] Plates were read after 5-days treatment using ONE-GloTM Luciferase Assay System. […] Luminescence was read in the SpectraMax M5e. […] Percentage of UMUC3-Luc-GFP killing was calculated against no treatment as 0%. Data was graphed and analyzed using Graphpad Prism version 9.5.1. IC50 was determined via log(inhibitor) vs. response (three parameters) curve fitting for bystander activity and log(inhibitor) vs. response (four parameters) for free payload cytotoxicity. […] In experiments run as essentially described herein, the bystander effects of four nectin-4 ADCs described herein and enfortumab vedotin were evaluated using the UMUC3-hNectin-4 cloneF7/UMUC3-Luciferase-GFP cell pair. […]

For another experiment, the system named is cyno Nectin-4. Briefly: Surface plasmon resonance (Biacore 8K+) binding of nectin-4 ADCs to cyno Nectin-4. Particulars: cyno Nectin-4, 37° C., ADC Formula XI DAR 8, n=1. How it is done:
as §1, §2, §3

The test system of experiment [2] is T24 mScarlet clone 5 Nectin-4 negative cells. Nature of the experiment: Bystander killing of T24-mScarlet clone 5 cells co-cultured with T24-human nectin4 clone108 (imaging). In kind it is cell-based. Conditions: T24-mScarlet clone5 : T24-human nectin4 clone108 9:1, 5 days, ADC Formula XI DAR 8; read-out: IC50 of bystander effect. How it is done: T24 cell line was engineered to express mScarlet and clonally selected to test in bystander assay. T24-mScarlet clone5 and T24-human nectin4 clone108 were mixed and seeded at a total of 1000 cells/well/100 ul with a ratio of 9:1 in culture medium (McCoy's 5A+1× GlutaMax+10% Heat Inactivated Fetal Bovine Serum+400 μg/ml G418) in flat clear bottom 96-well plates. T24 mScarlet clone 5 cells were negative for nectin-4 expression. Plates were incubated at 37° C. with 5% CO2 overnight. Next day, ADCs were added at final working concentration from 50 nM, 1:4 serially diluted in culture medium. Plates were covered with Breathe-Easy® sealing membrane, placed in BioSpa and scanned in Cytation5 every day for 5 days.
Images of T24-mScarlet cells were captured and analyzed by Cytation5 with Gen5 Image Prime 3.11. Percentage of T24-mScarlet cell killing was calculated by decreased Integrated Intensity (area×mean intensity), normalized to zero hour and no treatment. Data was graphed and analyzed using GraphPad Prism version 9.5.1. IC50 was determined via log(inhibitor) vs. response-variable slope (four parameters) curve fitting.

The test system of experiment [3] is T24-hNectin-4 clone 14 cells (MMAE-resistant). Briefly: ADC cytotoxicity in MMAE-resistant cells (CellTiter-Glo). Particulars: T24-hNectin-4 clone 14, 5 days. In kind it is cell-based, human. On the procedure:
In T24 nectin-4 cells that are resistant to MMAE, two nectin-4 ADCs described herein and enfortumab vedotin were tested for activity. T24-hNectin-4 clone 14 cells were seeded at 500 per well in 100 ul culture medium, in white clear-bottom 96-well tissue culture plates and incubated at 37° C. with 5% CO2 overnight. The next day each ADC was serially diluted 1:4, with a starting concentration of 400 nM, in culture medium. One-hundred ul of each ADC dilution was added per well and the plates were covered with a Breathe-Easy® sealing membrane and incubated at 37° C. with 5% CO2. After 5 days of treatment, the plates were removed from the incubator, placed at room temperature for 15 minutes, and 100 ul medium per well was removed. One hundred ul of CellTiter-Glo reagent was added per well and the plates were incubated at room temperature for 10 minutes. RLUs (Relative Light Units) were obtained by SpectraMax M5e with SoftMax Pro 5.4. Percentage of cell killing was calculated against DMSO only (for free payloads) or no treatment (for ADCs) as 0%. Data was graphed and analyzed using Graphpad Prism version 9.5.1. IC50s were determined via log(inhibitor) vs. response-variable slope (four parameters) curve fitting.
A general note: In ATP-based viability assays light output follows the ATP content of the culture.

Several values for one entry are separate records, joined by “and”; a condition that tells them apart may be missing. Equal values may be shown once.

B1: Ab7 (conjugate)
heavy: QVQLVQSGAEVKKPGASVKVSCKASGYTFTNYYMHWVRQAPGQGLEWMGIINPSSGSASYAQKFQGRVTMTRDTSTSTVYMELSSLRSEDTAVYYCAREGVGRDILQAFDIWGQGTLVTVSSASTKGPSVFPLAPSSKSTSGGTAALGCLVKDYFPEPVTVSWNSGALTSGVHTFPAVLQSSGLYSLSSVVTVPSSSLGTQTYICNVNHKPSNTKVDKRVEPKSCDKTHTCPPCPAPEAAGGPSVFLFPPKPKDTLMISRTPEVTCVVVSVSHEDPEVKFNWYVDGVEVHNAKTKPREEQYNSTYRVVSVLTVLHQDWLNGKEYKCKVSNKALPAPIEKTISKAKGQPREPQVYTLPPSREEMTKNQVSLTCLVKGFYPSDIAVEWESNGQPENNYKTTPPVLDSDGSFFLYSKLTVDKSRWQQGNVFSCSVMHEALHNHYTQKSLSLSPGK
light: QSVLTQPPSVSEAPRQRVTISCSGSSSNIGNNAVNWYQQLPGKAPKLLIYYDDLLPSGVSDRFSGSKSGTSASLAISGLQSEDEADYYCAAWDDSLNGHVFGGGTKLTVLGQPKAAPSVTLFPPSSEELQANKATLVCLISDFYPGAVTVAWKADSSPVKAGVETTTPSKQSNNKYAASSYLSLTPEQWKSHRSYSCQVTHEGSTVEKTVAPTECS
B1: the ka is 404000 M⁻¹ s⁻¹ in the experiment with rat Nectin-4; 5.91 × 10^5, 1/Ms and 5.64 × 10^5 1/Ms in the experiment with human Nectin-4; 1.18e+06 M⁻¹ s⁻¹ with cyno Nectin-4. Besides, the kd was 0.0296 s⁻¹ on rat Nectin-4; 2.43 × 10^−2, 1/s and 2.12 × 10^−2 1/s in the experiment with human Nectin-4; 0.0464 s⁻¹ on cyno Nectin-4. In experiment [1], the “Bystander effect (in words)” value is “potent bystander effects”. Moreover, the half-inhibitory concentration (IC50) in experiment [2] is 0.0836 nM.

B2: Ab2 (conjugate)
heavy: EVQLVESGGGLVQPGGSLRLSCAASGFTFSSYDMHWVRQATGKGLEWVSAIGTVGDTYYPGSVKGRFTISRENAKNSLYLQMNSLRAGDTAVYYCAREWNGMDVWGQGTTVTVSSASTKGPSVFPLAPSSKSTSGGTAALGCLVKDYFPEPVTVSWNSGALTSGVHTFPAVLQSSGLYSLSSVVTVPSSSLGTQTYICNVNHKPSNTKVDKRVEPKSCDKTHTCPPCPAPEAAGGPSVFLFPPKPKDTLMISRTPEVTCVVVSVSHEDPEVKFNWYVDGVEVHNAKTKPREEQYNSTYRVVSVLTVLHQDWLNGKEYKCKVSNKALPAPIEKTISKAKGQPREPQVYTLPPSREEMTKNQVSLTCLVKGFYPSDIAVEWESNGQPENNYKTTPPVLDSDGSFFLYSKLTVDKSRWQQGNVFSCSVMHEALHNHYTQKSLSLSPGK
light: DIVMTQSPDSLAVSLGERATINCKSSQSVLYNSNNKNYLAWYQQKPGQPPKLLIYWASTRESGVPDRFSGSGSGTDFTLTISSLQAEDVAVYYCQQFYTTPYSFGQGTKVEIKRTVAAPSVFIFPPSDEQLKSGTASVVCLLNNFYPREAKVQWKVDNALQSGNSQESVTEQDSKDSTYSLSSTLTLSKADYEKHKVYACEVTHQGLSSPVTKSFNRGEC
As to B2, the ka is 695000 M⁻¹ s⁻¹ in the experiment on rat Nectin-4, “(1.02 ± 0.34) × 10^6 1/Ms” with human Nectin-4 and 1.01e+06 M⁻¹ s⁻¹ in the experiment with cyno Nectin-4. In addition, the values for the kd on rat Nectin-4, with human Nectin-4 and on cyno Nectin-4 were 0.0753 s⁻¹, “(2.14 ± 0.66) × 10^−2 1/s” and 0.02 s⁻¹, respectively. Also, in experiment [1], the “Bystander effect (in words)” value is “potent bystander effects”. The “Activity against MMAE-resistant cells” value in experiment [3] was “retained activity”. In experiment [2], the IC50 stood at 0.0627 nM.
